Data on 25 compounds can be found in publication PMC4336329 (PLoS ONE, 2015).

Out of some 310,000 compounds screened, about 2,200 (0.71%) showed an effect of 50% or more. Effects have a minus sign here. This is one part of the list.

For the test, the target named is human ether-à-go-go-related gene (hERG) potassium channel (human, UniProt Q12809). Briefly: primary screen, population patch clamp on CHO cells stably expressing hERG.
Chain of human ether-à-go-go-related gene (hERG) potassium channel (Q12809 whole entry, looked up): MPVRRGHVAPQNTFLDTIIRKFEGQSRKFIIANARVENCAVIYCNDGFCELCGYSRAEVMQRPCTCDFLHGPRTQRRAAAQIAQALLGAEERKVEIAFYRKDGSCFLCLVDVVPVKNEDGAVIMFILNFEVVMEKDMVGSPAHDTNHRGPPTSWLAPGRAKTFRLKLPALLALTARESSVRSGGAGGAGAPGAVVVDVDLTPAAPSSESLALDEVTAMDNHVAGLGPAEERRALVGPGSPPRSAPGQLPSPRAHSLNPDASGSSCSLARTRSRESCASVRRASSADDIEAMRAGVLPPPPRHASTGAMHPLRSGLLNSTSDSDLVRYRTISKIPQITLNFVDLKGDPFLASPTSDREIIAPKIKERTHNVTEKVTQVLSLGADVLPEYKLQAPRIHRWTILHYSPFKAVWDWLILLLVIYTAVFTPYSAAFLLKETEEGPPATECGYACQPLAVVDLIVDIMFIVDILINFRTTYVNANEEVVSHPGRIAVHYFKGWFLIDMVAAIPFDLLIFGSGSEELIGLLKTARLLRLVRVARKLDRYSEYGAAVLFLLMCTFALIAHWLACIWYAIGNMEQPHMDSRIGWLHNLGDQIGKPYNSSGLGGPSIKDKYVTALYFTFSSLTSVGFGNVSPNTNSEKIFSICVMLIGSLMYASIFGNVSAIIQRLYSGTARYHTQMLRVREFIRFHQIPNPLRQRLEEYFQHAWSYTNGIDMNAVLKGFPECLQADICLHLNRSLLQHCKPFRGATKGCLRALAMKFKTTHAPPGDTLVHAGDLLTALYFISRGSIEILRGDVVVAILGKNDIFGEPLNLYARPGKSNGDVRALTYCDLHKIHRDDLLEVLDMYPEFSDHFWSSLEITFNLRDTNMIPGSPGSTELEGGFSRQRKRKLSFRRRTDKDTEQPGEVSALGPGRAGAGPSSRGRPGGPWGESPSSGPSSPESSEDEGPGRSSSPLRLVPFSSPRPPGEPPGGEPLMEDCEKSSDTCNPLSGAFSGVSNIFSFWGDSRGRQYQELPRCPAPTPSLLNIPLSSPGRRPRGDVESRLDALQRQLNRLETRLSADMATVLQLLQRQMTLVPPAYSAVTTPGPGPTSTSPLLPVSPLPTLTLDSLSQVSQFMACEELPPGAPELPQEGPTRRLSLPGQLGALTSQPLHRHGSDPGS
Regarding `CSc1ccccc1N=Cc1nc(-c2ccccc2)oc1O`, the “hERG current change (%, negative = inhibition) at 1uM” value is 0.897%.

On to `COc1ccc(C(=O)Nc2cc(Cl)ccc2Cl)c(OC)n1`, for which the “hERG current change (%, negative = inhibition) at 1uM” value was determined as 4.33%.

For the compound `CC(C)CNc1oc(-c2ccccc2Cl)nc1C#N`, the “hERG current change (%, negative = inhibition) at 1uM” value is on record as -12.5%.

`Cc1cc(C)c(N2CCN(S(=O)(=O)N3CCCCCC3)CC2)c(C)c1`: the “hERG current change (%, negative = inhibition) at 1uM” value is recorded as -2.05%.

Regarding `CCn1c(S(=O)(=O)O)nc2ccccc21`, the “hERG current change (%, negative = inhibition) at 1uM” value is reported as 2.11%.

Take `Cc1cc(OCC(=O)N(Cc2ccco2)C2CCS(=O)(=O)C2)ccc1Cl` (stereo not shown): the “hERG current change (%, negative = inhibition) at 1uM” value is -3.65%.

For the compound `Nc1c(-c2ccccc2)c(CSc2nc3ccccc3[nH]2)nn1-c1cccc(C(=O)O)c1`, the “hERG current change (%, negative = inhibition) at 1uM” value is 3.77%.

Regarding `O=C(Nc1ccccc1N1CCCCC1)c1ccc(OC(F)F)cc1`, the “hERG current change (%, negative = inhibition) at 1uM” value is -4.9%.

`COc1cc2c(cc1OC)C(c1ccccc1N)=NCC2`: the “hERG current change (%, negative = inhibition) at 1uM” value is recorded as 14.7%.

In the case of `Cc1ccc2c(c1)N(Cc1cccc(F)c1)C(=O)C(C)O2` (stereo not shown), the “hERG current change (%, negative = inhibition) at 1uM” value is recorded as 12.4%.

In the case of `Cc1ccc(-c2csc3ncnc(SCC(N)=O)c23)cc1`, the “hERG current change (%, negative = inhibition) at 1uM” value was determined as 17.1%.

In the case of `COc1cc(OC)cc(C(=O)N[C@H](C(=O)NC23CC4CC(CC(C4)C2)C3)C(C)C)c1`, the “hERG current change (%, negative = inhibition) at 1uM” value was 16.2%.

In the case of `CC(C)C(=O)OCC(=O)Nc1ccc(N=Nc2ccccc2)cc1`, the “hERG current change (%, negative = inhibition) at 1uM” value was found to be 10.8%.

As for `Cc1ccc(S(=O)(=O)N2CC3CCC2C3)cc1` (stereo not shown), the “hERG current change (%, negative = inhibition) at 1uM” value worked out at 15.7%.

For the compound `CC(C)(C)C(=O)Nc1cc(NC(=O)C(C)(C)C)cc(C(=O)Nc2cc(C(=O)O)cc(C(=O)O)c2)c1`, the “hERG current change (%, negative = inhibition) at 1uM” value is recorded as 4.99%.

As to `CCCCOC(=O)c1ccc(NC(=O)c2c(Cl)ccc(Cl)c2OC)cc1`, the “hERG current change (%, negative = inhibition) at 1uM” value is recorded as 10.7%.

Take `Cc1ccc(NC(=O)CC2S/C(=N/N=C/c3c[nH]c4ccccc34)NC2=O)cc1` (stereo not shown): the “hERG current change (%, negative = inhibition) at 1uM” value was 2.43%.

In the case of `O=C(c1ccc(CNc2c(N3CCOCC3)c(=O)c2=O)cc1)N1CC=C(c2ccccc2)CC1`, the “hERG current change (%, negative = inhibition) at 1uM” value is -0.317%.

Turning to `C=CCN1C(=O)C(CC(=O)Nc2ccc(OCC)cc2)N(Cc2ccccn2)C1=S` (stereo not shown), the “hERG current change (%, negative = inhibition) at 1uM” value is recorded as 3.06%.

Consider `CC1CCC(N2CCN(c3ncccn3)CC2)CC1` (stereo not shown), for which the “hERG current change (%, negative = inhibition) at 1uM” value was 4%.

For the compound `COc1cc(Br)cc2cc(C(=O)N3CCCCC3C)c(=O)oc12` (stereo not shown), the “hERG current change (%, negative = inhibition) at 1uM” value is on record as 15.7%.

Turning to `Cn1/c(=N\NC(=O)C2CCCCC2)sc2ccccc21`, the “hERG current change (%, negative = inhibition) at 1uM” value came to 16.7%.

On to `CCC(=O)Nc1c2c(nn1-c1ccc(F)cc1)CS(=O)(=O)C2`, for which the “hERG current change (%, negative = inhibition) at 1uM” value is 10.5%.

With `N[C@@H](Cc1cc(I)c(Oc2cc(I)c(O)c(I)c2)c(I)c1)C(=O)O`, the “hERG current change (%, negative = inhibition) at 1uM” value is recorded as 11%.

As for `Cc1occc1-c1nnc(SCC(=O)c2ccc(Cl)cc2)n1CC1CCCO1` (stereo not shown), the “hERG current change (%, negative = inhibition) at 1uM” value is 2.48%.
